# In all, about 44,000 compounds went through this assay and about 340 (0.77%) were called active. Roughly 5% stayed inconclusive and do not appear here. Calls follow the shape of the dose curve; as a rule, active = well fitted inhibition curve with a large enough effect; inconclusive = small, poorly fitted or top-dose-only effect; inactive = flat fitted curve, though single readings scatter. The list shows a part of the results.
# Assay: Acumen qHTS Assay for Inhibitors of the mTORC1 Signaling Pathway in MEF (Tsc2-/-, p53-/-) Cells: Sytravon;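 also: plate controls were DMSO for no effect and rapamycin for full effect; nearly all actives have a fitted effect of over 50% in size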
# Conditions: phospho-rpS6 immunofluorescence/PI, 24 h; series mostly up to 38.3 µM; activity change, negative = inhibition: at the top concentration
# Outline: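 Cell-based qHTS: Tsc2-/- p53-/- MEF, 24 h cpd, 37 °C; fix/perm, anti-phospho-S6 Alexa-488 + PI; Acumen 488 nm scan; pS6/PI ratio, % positive cells; rapamycin 7.5 nM = inhibition ref; PI count = viability.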
row,SMILES,"activity change, negative = inhibition"
1,CC(=O)c1ccc(N2CCN(C(=O)CCCn3c(=O)[nH]c4ccsc4c3=O)CC2)cc1,inactive: 2.91%
2,COCCCNC(=O)c1ccc(Cn2c(=O)c3cccn3c3cccnc32)cc1,inactive: -5.23%
3,COc1ccc(C(CC(=O)Nc2ccc(Br)cn2)N2Cc3ccccc3C2=O)cc1 (centres undefined),inactive: -12%
4,Cc1nn(CC(=O)NCc2ccc(N(C)C)cc2)c(=O)c2nn(-c3ccccc3)c(C)c12,inactive: -0.0063%
5,COc1ccccc1CCNC(=O)C1CCN(c2nnc(C)c3c(C)n(-c4ccc(C)cc4)nc23)CC1,inactive: -9.17%
6,Cc1ccc(Cn2c(CN3CCN(c4cccc(Cl)c4)CC3)nc3c2c(=O)n(C)c(=O)n3C)cc1,inactive: -0.505%
7,O=[N+]([O-])c1ccc(O)c(-c2ccnc3cc(-c4ccccc4)nn23)c1,inactive: 5.7%
8,Cc1ccc2c(=O)cc(C(=O)Nc3c(C(=O)c4ccc(F)cc4)oc4ccccc34)oc2c1C,inactive: 2.52%
9,CSc1nn(CC(=O)Nc2cc(C)ccc2C)c(N)c1S(=O)(=O)c1ccccc1,inactive: 9.41%
10,O=C(Nc1nnc(S(=O)(=O)N2CCCCCC2)s1)c1ccc(Cl)cc1,inactive: 11.2%
11,COc1ccc(NC(=O)CC(C)S(=O)(=O)c2cc3c(cc2C)NC(=O)CO3)cc1OC (centres undefined),inactive: 4.08%
12,CC(C)CC(=O)OCc1cc(=O)n2nc(C3CCCCC3)sc2n1,inactive: 6.94%
13,COc1ccccc1CNC(=O)C1CCN(c2nnc(C)c3c(C)n(-c4ccccc4)nc23)CC1,inactive: 4.85%
14,Cc1ccc(NC(=O)CN2C(=O)CC(c3ccc(C)c(C)c3)=Nc3ccccc32)cc1,inactive: 3.29%
15,CCOC(=O)Cn1c(=O)oc2cc(S(=O)(=O)N3CCN(c4ccc(F)cc4)CC3)ccc21,inactive: -10.9%
16,Cc1cccc(C)c1OC(=O)CSc1nnc(-c2ccc3c(c2)OCO3)o1,inactive: -0.0783%
17,COc1ccc(CCNC(=O)c2c(C)oc3ncn(CC(C)C)c(=O)c23)c(OC)c1,inactive: 1.97%
18,COC(=O)c1c(C)sc(-c2c(-c3ccc(OC)c(F)c3)[nH]c3c2c(=O)n(C)c(=O)n3C)c1O,inactive: 0.0403%
19,CC(C)C(=O)Nc1nnc(S(=O)(=O)N2c3ccccc3CC2C)s1 (centres undefined),inactive: 0%
20,Cc1ccc(C(C)C)c(OCC(=O)Nc2ccc(O)c(-c3nc4cc(Cl)ccc4o3)c2)c1,inactive: 3.24%

row,SMILES,"activity change, negative = inhibition"
1,CCOC(=O)c1c(-c2ccccc2)oc2ccc(OCc3cccc(Br)c3)cc12,inactive: -4.13%
2,CCN1C(=O)c2ccccc2S(=O)c2ccc(C(=O)NCc3ccc(Cl)cc3)cc21 (centres undefined),inactive: -17.2%
3,CCN(c1cccc(C)c1)S(=O)(=O)c1c(C)nc2sc(C)cn2c1=O,inactive: -0.737%
4,O=C(Cn1cc(C(=O)c2cccs2)c2ccccc21)Nc1ccc(Br)cc1,inactive: -0.491%
5,COc1cccc(C(c2sc3nc(-c4ccco4)nn3c2O)N2CCN(C)CC2)c1 (centres undefined),inactive: -2.55%
6,COc1ccc(CNC(=O)CN(C)S(=O)(=O)c2ccc3c(c2)c(=O)n(C)c(=O)n3C)cc1,inactive: -0.544%
7,COc1ccc(C(=O)Oc2cc(-c3ccc(OC)c(OC)c3)cc(=O)c3c(C)oc(C)c23)cc1,inactive: 0%
8,CCS(=O)(=O)Nc1ccc(-c2cn3c(C)csc3n2)cc1,inactive: 2.37%
9,COc1ccc(-c2cc(C(=O)NCCc3ccccc3)c3c(-c4ccc(Cl)cc4)[nH]nc3n2)cc1,inactive: 4.66%
10,COc1ccc(CCNC(=O)CS(=O)(=O)Cc2nc(-c3cccc(Cl)c3)oc2C)cc1OC,inactive: -9.15%
11,CC(C)c1ccccc1NC(=O)Cn1cnc2c1c(=O)n(C)c(=O)n2C,inactive: -3.84%
12,COc1ccc(CNC(=O)c2cccn2-c2nnc(N3CCCCC3)s2)c(OC)c1,inactive: -6.9%
13,O=C(CCS(=O)(=O)c1cc(Br)cc2c1N(C(=O)C1CC1)CC2)N1CCN(c2cccc(C(F)(F)F)c2)CC1,inactive: -4.44%
14,O=C(Cn1c(=O)n(Cc2ccc(C(=O)NCc3ccc4c(c3)OCO4)cc2)c(=O)c2ccccc21)Nc1ccccc1F,inactive: -0.305%
15,Cc1cccc(N2C(=O)N(Cc3cccc(C#N)c3)c3ccccc3S2(=O)=O)c1,inactive: -0.75%
16,CCCNC(=O)c1c(NC(=O)c2ccccc2)sc2c1CCC(C(C)(C)C)C2 (centres undefined),inactive: 4.05%
17,CC(C)N(Cc1nc(-c2ccc(Cl)cc2)no1)C(=O)c1ccco1,inactive: -19.1%
18,CCCc1nnc(NC(=O)C(CC)Sc2nnc3c4ccccc4n(C)c3n2)s1 (centres undefined),inactive: 3.27%
19,COc1ccc(-n2ccn(CC(=O)Nc3ccc(C)cc3C)c(=O)c2=O)cc1,inactive: 5.3%
20,CC(C)(C)c1ccc(C(=O)NC(Cc2c[nH]c3ccccc23)C(=O)OCC(=O)c2ccc(Br)cc2)cc1 (centres undefined),inactive: 6.72%

row,SMILES,"activity change, negative = inhibition"
1,COc1ccc2c(c1)c1c(c(=O)n(-c3cccc(C)c3)c(=O)n1CC(=O)NCc1ccc(C)cc1)n2C,inactive: -13.6%
2,Cc1ccc(OCC(=O)Nc2ccc3nn(-c4ccc(C)cc4)nc3c2)cc1,inactive: 4.6%
3,Cc1cccc(CCNC(=O)CCS(=O)(=O)c2cc3c(cc2C)NC(=O)CO3)c1,inactive: 1.79%
4,Cc1nn(CCC(=O)Nc2ccccc2Br)c(=O)c2nn(-c3ccccc3)c(C)c12,inactive: -3.04%
5,CCc1nnc2c(Nc3ccccc3Br)nc3ccccc3n12,inactive: -9.44%
6,Cn1cnc(S(=O)(=O)N2CCC(C(=O)Nc3ccc(Cl)c(C(F)(F)F)c3)CC2)c1,inactive: 2.99%
7,CCOC(=O)N1CCC2(CC1)OC(=O)C(C)=C2C(=O)NCc1ccccc1OC,inactive: -16.8%
8,COc1ccccc1N1CCN(C(=O)CNS(=O)(=O)c2ccc(Br)s2)CC1,inactive: -21.9%
9,CCc1cccc(NS(=O)(=O)c2ccc3c(c2)N(CC(=O)OC)C(=O)CS3)c1,inactive: -18.1%
10,Cc1cccc(C(C)C)c1NC(=O)c1ccc2c(c1)CCCN2S(C)(=O)=O,inactive: -16.7%
11,Cc1cc(Cl)ccc1OCC(=O)N(Cc1ccc(N(C)C)cc1)C1CCS(=O)(=O)C1 (centres undefined),inactive: 7.01%
12,CCCn1cc(S(=O)(=O)c2cccc(Cl)c2)c(=O)c2cc(F)c(N3CCCC3)cc21,inactive: 2.71%
13,CCOC(=O)c1cc(-c2ccc(C)cc2)n(CC(=O)Nc2ccc(OC)cc2OC)c1C,inactive: -7.66%
14,Cc1ccc(S(=O)(=O)N(CC(=O)NCCSc2ccc(Cl)cc2)c2cccc(Cl)c2)cc1,inactive: 0.214%
15,CCN1CCN(C(c2ccc(F)cc2)c2sc3nc(-c4ccco4)nn3c2O)CC1 (centres undefined),inactive: -5.85%
16,Cc1ccc(S(=O)(=O)CCC(=O)N2CCN(c3nc4c(C)c(C)ccc4s3)CC2)cc1,inactive: 2.3%
17,Cc1ccc(OCC(=O)Nc2nonc2-c2ccc(Br)cc2)cc1,inactive: -0.998%
18,CCC(C)NC(=O)c1cnn(-c2cccc(F)c2)c1-n1cccc1 (centres undefined),inactive: 8.53%
19,CC(C)OCCCNC(=O)CN1C(=O)c2ccccc2Sc2ncccc21,inactive: -0.619%

# — PubChem BioAssay AID493208 (National Center for Advancing Translational Sciences (NCATS), 2011)
